Assay results as given in publication PMC4336329 (PLoS ONE, 2015).
In all, about 310,000 compounds went through this assay and about 14,000 (4.5%) showed an effect of 50% or more. The effect is printed as a negative number. The list shows a part of the results.

Target: human ether-à-go-go-related gene (hERG) potassium channel (human, UniProt Q12809)
Assay: primary screen, population patch clamp on CHO cells stably expressing hERG
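Further: peak tail current of the secondary pulse compared with the same well before compound.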

Chain of human ether-à-go-go-related gene (hERG) potassium channel (Q12809 whole entry, looked up): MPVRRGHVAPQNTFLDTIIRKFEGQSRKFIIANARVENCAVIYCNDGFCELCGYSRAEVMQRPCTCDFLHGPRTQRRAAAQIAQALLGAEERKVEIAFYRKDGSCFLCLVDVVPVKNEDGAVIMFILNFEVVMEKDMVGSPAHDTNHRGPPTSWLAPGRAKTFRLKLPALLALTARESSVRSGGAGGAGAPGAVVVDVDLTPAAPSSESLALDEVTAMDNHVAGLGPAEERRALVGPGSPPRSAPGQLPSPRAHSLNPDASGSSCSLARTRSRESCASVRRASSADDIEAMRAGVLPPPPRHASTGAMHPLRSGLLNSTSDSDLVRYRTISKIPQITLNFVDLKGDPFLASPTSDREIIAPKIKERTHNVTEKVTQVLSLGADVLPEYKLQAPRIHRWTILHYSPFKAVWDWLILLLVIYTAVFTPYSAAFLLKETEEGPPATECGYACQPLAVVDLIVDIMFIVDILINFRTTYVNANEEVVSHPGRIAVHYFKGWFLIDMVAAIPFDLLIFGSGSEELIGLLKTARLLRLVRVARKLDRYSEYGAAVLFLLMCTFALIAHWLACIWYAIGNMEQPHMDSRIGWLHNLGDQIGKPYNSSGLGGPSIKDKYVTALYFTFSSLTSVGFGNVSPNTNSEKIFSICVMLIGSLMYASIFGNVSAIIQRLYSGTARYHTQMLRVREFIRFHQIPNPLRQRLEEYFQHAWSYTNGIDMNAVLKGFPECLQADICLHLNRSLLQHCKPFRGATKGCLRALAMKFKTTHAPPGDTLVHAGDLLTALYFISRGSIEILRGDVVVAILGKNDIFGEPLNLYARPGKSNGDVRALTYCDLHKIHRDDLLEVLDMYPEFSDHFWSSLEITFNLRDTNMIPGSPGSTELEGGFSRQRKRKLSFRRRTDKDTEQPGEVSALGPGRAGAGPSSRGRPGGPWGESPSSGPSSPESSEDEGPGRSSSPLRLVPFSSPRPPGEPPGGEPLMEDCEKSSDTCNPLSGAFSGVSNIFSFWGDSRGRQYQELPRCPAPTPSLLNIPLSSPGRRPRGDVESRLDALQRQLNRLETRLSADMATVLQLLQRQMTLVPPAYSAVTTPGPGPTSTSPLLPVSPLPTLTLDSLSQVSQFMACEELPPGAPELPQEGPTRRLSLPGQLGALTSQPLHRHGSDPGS

Compared with `Cc1c(NC(=O)COC(=O)C23CC4CC(CC(Br)(C4)C2)C3)c(=O)n(-c2ccccc2)n1C`, `COc1ccc(CNC(=O)Cn2ccc(NC(=O)OCc3ccccc3)nc2=O)cc1` is higher in “hERG current change (%, negative = inhibition) at 10uM” value: 9.08% for the first, 19.1% for the second.

First: CNc1ccc(S(=O)(=O)NC)cc1[N+](=O)[O-]
Second: O=C(NNC(=O)c1ccccc1[N+](=O)[O-])c1ccco1
The “hERG current change (%, negative = inhibition) at 10uM” value of the first is lower: 10.2% for the first, 17.2% for the second.

First: Cc1ccc2nc(NC(=O)c3ccccn3)sc2c1
Second: O=C(NCc1ccccn1)c1ccc2c(c1)N(Cc1ccccc1)CCS2
The “hERG current change (%, negative = inhibition) at 10uM” value of the first is higher: 22.3% for the first, -15.4% for the second.

Going from `CC(NC(=O)c1ccc(OC2CCN(Cc3ccccn3)CC2)cc1)c1nccs1` (stereo not shown) to `CCOc1ccc(N2CC(C(=O)Nc3cccc(C(=O)NC4CC4)c3)CC2=O)cc1` (stereo not shown), the “hERG current change (%, negative = inhibition) at 10uM” value rises from -10.3% to 1.39%.

Going from `CC(C)(C)c1cnnn1-c1ccc([N+](=O)[O-])cc1` to `O=C(Nc1ccccc1)c1ccc(-n2cnnn2)cc1`, the “hERG current change (%, negative = inhibition) at 10uM” value rises from -8.46% to 7.76%.

Going from `CC(C)NC(=O)C(=O)NNC(=O)CCc1ccccc1` to `CC(C)CNC(=O)NC(=O)COC(=O)c1cccc(NS(=O)(=O)c2ccc(F)c(F)c2)c1`, the “hERG current change (%, negative = inhibition) at 10uM” value falls from 8.29% to -24.5%.

First: O=C(c1ccc(Cl)cc1)c1c[nH]c(C(=O)C(Cl)(Cl)Cl)c1
Second: Cc1ccc(NC(=O)CN(C)Cc2ccc(Cl)cc2)cc1
The “hERG current change (%, negative = inhibition) at 10uM” value of the first is higher: 13.5% for the first, -8.48% for the second.

First: COc1ccccc1N=C1SC(C(=O)Nc2ccc(F)cc2)CC(=O)N1C (stereo not shown)
Second: COc1ccc(/C=C2\SC(=S)N(CCCC(=O)Nc3ccccn3)C2=O)cc1OC
The “hERG current change (%, negative = inhibition) at 10uM” value of the first is lower: -18.7% for the first, 12.7% for the second.

Going from `O=C1/C(=C/c2cccs2)SC(=S)N1c1cccc(O)c1` to `O=C(CSc1nc2nccnc2c(=O)n1Cc1cccs1)Nc1ccccc1`, the “hERG current change (%, negative = inhibition) at 10uM” value falls from 11.2% to -74.9%.

Compared with `CC(=O)NCCC(=O)Nc1nc(-c2ccc3c(c2)OCCO3)cs1`, `CCC(=O)Nc1cccc(NC(=O)COc2ccc(OC)cc2)c1` is lower in “hERG current change (%, negative = inhibition) at 10uM” value: -0.193% for the first, -6.39% for the second.

Compared with `CCN(C(=O)c1cc2c(=O)[nH]c3ccc(C)cc3c2s1)c1ccccc1F`, `CCCN(C(=O)c1cc(C)ccc1C)c1c(N)n(Cc2ccccc2)c(=O)[nH]c1=O` is lower in “hERG current change (%, negative = inhibition) at 10uM” value: 13% for the first, 11.2% for the second.

Going from `O=C(O)c1cc(O)ccc1N=Nc1ccccc1` to `O=C(NNC(=O)c1ccc(NC(=O)c2ccccc2)cc1)Nc1ccccc1`, the “hERG current change (%, negative = inhibition) at 10uM” value falls from 18.5% to 15%.

Going from `CC(C)OC(=O)c1c(NC(=O)CCC(=O)O)sc2c1CCCCC2` to `COc1ccc(C(C(=O)NC2CCCC2)N(C(=O)c2snc(C(N)=O)c2N)C2CCCC2)cc1OC` (stereo not shown), the “hERG current change (%, negative = inhibition) at 10uM” value falls from 8.16% to 5.77%.

Compared with `CC(=O)NS(=O)(=O)c1ccc(NC(=S)Nc2ccccc2)cc1`, `O=C(NCCc1nc2ccccc2[nH]1)/C(=C/c1ccco1)NC(=O)c1ccc(Br)cc1` is lower in “hERG current change (%, negative = inhibition) at 10uM” value: 8.62% for the first, -69.9% for the second.

Compared with `COc1cccc(/C=N/NC(=O)C(=O)NCc2cccnc2)c1O`, `O=C(N/N=C/C=C/c1ccco1)c1ccncc1` is higher in “hERG current change (%, negative = inhibition) at 10uM” value: -4.51% for the first, 6.21% for the second.

Compared with `CN1CCN(C(=O)C2=C[C@@H](c3ccc(Br)cc3)C[C@@H](OCc3ccc(CO)cc3)O2)CC1`, `CCCN1CCN(C(=O)CS(=O)(=O)Cc2nc(-c3cccc(OC)c3)oc2C)CC1` is higher in “hERG current change (%, negative = inhibition) at 10uM” value: -39.1% for the first, -14.8% for the second.

Going from `COc1cc(CNc2nnnn2C)cc(OC)c1OC` to `COc1ccc(OC)c(NC(=O)CCS(=O)(=O)c2cc3c(cc2C)NC(=O)CO3)c1`, the “hERG current change (%, negative = inhibition) at 10uM” value falls from 13.3% to 3.72%.

First: c1ccc(C2OC3c4cccc5cccc(c45)C3N2c2ccccc2)cc1 (stereo not shown)
Second: Cc1ccc(/C=C/C(=O)N2CCc3ccccc32)o1
The “hERG current change (%, negative = inhibition) at 10uM” value of the first is higher: 10.9% for the first, -7.87% for the second.

Going from `O=c1[nH]c(=O)n([C@H]2C[C@H](O)[C@@H](CO)O2)cc1Br` to `O=C(O)c1cc(Cl)c(Cl)cc1C(=O)N1CCOCC1`, the “hERG current change (%, negative = inhibition) at 10uM” value falls from 12.7% to 10.4%.

Compared with `O=C(Cc1ccc(Cl)cc1Cl)NCC1(N2CCOCC2)CCCCC1`, `CCn1cc(C(=O)NCCCN2CCC(C)CC2)c(=O)c2cc(S(=O)(=O)N3CCOCC3)ccc21` is lower in “hERG current change (%, negative = inhibition) at 10uM” value: 5.44% for the first, -17.1% for the second.

Going from `Cc1ccc(S(=O)(=O)N(C)C)cc1NC(=O)C(C)[N+]12CCN(CC1)CC2.[Cl-]` (stereo not shown) to `CCCS(=O)(=O)c1nc(S(=O)(=O)c2ccc(C)cc2)c(N2CCCC(C)C2)s1` (stereo not shown), the “hERG current change (%, negative = inhibition) at 10uM” value falls from 53.6% to -0.281%.

With `S=C(NC1CCCCC1)c1ccc2c(c1)OCO2` the “hERG current change (%, negative = inhibition) at 10uM” value was 4.84%.
